# From ChEMBL document CHEMBL4888484, “Replenishing the malaria drug discovery pipeline: Screening and hit evaluation of the MMV Hit Generation Library 1 (HGL1) against asexual blood stage Plasmodium falciparum ,using a nano luciferase reporter read-out” (2022)
# In all, about 150,000 compounds went through this assay and about 540 (0.36%) showed an effect of 50% or more. Some of the results follow.
# Tested on: Plasmodium falciparum
# Experiment: Primary screen in NF54 nanoGlo assay, in single point, at 2uM, 72h; a lower Z score goes with more inhibition
# Assay type: functional, Erythrocyte
# Details: timepoint 72 hour
SMILES,% Inhibition,Z score
O=C(Nc1ccc(F)cc1F)c1nnc(CNS(=O)(=O)Cc2ccccc2)s1,-10%,1.62
Cn1c(=O)c2ccn(CC(=O)N3CCN(c4ccccc4F)CC3)c2n(C)c1=O,-11%,1.14
Cc1cc(CNC(=O)N2CCC(S(N)(=O)=O)CC2)ccc1-c1ccccc1,-1%,0.13
CCc1ccc(C(=O)CCC(=O)Nc2ncccc2O)cc1,-8%,1.22
C[C@@H]1CN(C[C@@H]2CN(C(=O)CCC3CC3)C[C@@H]2CO)C[C@H](C)O1,-21%,1.81
CC(C)CCn1c(C(=O)N2CCCC2)cc2cc(NC(=O)c3ccc(C(C)(C)C)cc3)ccc21,8%,-1.49
O=C1CC[C@H](NC(=O)c2ccccc2OCC(=O)Nc2ccccc2F)CN1,-3%,0.48
C#CCOCC(O)CN(CC(=O)N1CCc2sccc2C1COc1ccc(F)cc1)C(C)C (stereo not drawn),-15%,2.87
CC(C)CCn1c(=O)c2ccccc2n(CC(=O)NC2CCCC2)c1=O,-6%,0.79
COC(=O)c1cc(NC(=O)c2cc(C3CC3)nc3ccccc23)cc(C(=O)OC)c1,-9%,1.01
CN(C)CCN1C[C@]2(CCCN(C(=O)COc3ccccc3O)C2)CCC1=O,-2%,0.26
O=C(CCN1Cc2ccccc2OC(c2ccccc2)C1)N1CCC(C(O)c2cccnc2)CC1 (stereo not drawn),-1%,0.11
CC(C)[C@H](NCc1nc(C(F)(F)F)cs1)C1(CO)CCC1,-15%,1.9
CC(C)NC(=O)c1ccc(Cl)c(NC(=O)[C@]2(C)CCCCN2C(=O)c2ccccc2)c1,-4%,0.42
N#CCCN(CC(F)(F)F)C(=O)Cc1ccc(F)cc1Cl,0%,-0.06
CC(C)NC(=O)N[C@H]1CC(=O)N(C(C)C)C1,0%,0.07
CC1=NO[C@H](C(=O)N2CCC3(CCC(=O)N(Cc4cccnc4)C3)CC2)C1,-9%,1.43
COc1cc2c(cc1OC)CN(c1ccc(S(=O)(=O)N3CCCC3)cn1)CC2,4%,-0.35
Fc1cc(F)cc(CN2CCC[C@H]2c2ccn[nH]2)c1,-7%,0.87
COc1ccc2cc1OCCn1cc(nn1)CO[C@H]1CN(C(=O)c3cnn(C(C)C)c3)C[C@@H]1NC2=O,-4%,0.81
CC(C)Cc1nc(CNS(=O)(=O)c2cn[nH]c2)no1,-8%,1.6

SMILES,% Inhibition,Z score
CCCOc1cccc(OCCNCC)c1,-2%,0.44
CCOc1ccnc(NCCc2scnc2C)n1,3%,-0.66
Clc1ccccc1-c1cc(CN[C@H]2CCOC2)no1,-8%,1.19
O=S(=O)(Cc1ccccc1)N1CCN(Cc2cccc(F)c2)C2(CCOCC2)C1,-3%,0.56
CCN(CCO)c1ccnc(Cc2ccccc2)n1,-15%,2.23
CCN(CC)C(=O)C(C)NC(=O)NCC1CCCO1 (stereo not drawn),-31%,3.63
Cn1ncc2cnn(CCOCC(F)(F)F)c2c1=O,0%,-0.02
O=C1CC[C@H](NC(=O)c2cc(Cc3ccccc3)ccc2O)CN1,-5%,0.89
Cc1ccc(-c2cccc(-c3ccn(Cc4ccc5ccccc5n4)n3)c2)nn1,-4%,0.58
C[C@@H](O)CNC(=O)C(=O)Nc1ccc(O)cc1,-1%,0.15
Cc1cc(NC(=O)N2CCC(Oc3cccc(C#N)c3)CC2)ccn1,-17%,1.94
CS(=O)(=O)N1CC[C@@H](C(=O)N2CCCC2)Oc2ccccc21,10%,-1.21
CCCNS(=O)(=O)c1cc(NC(=O)CC(C)C)ccc1Oc1c(C)c(C(=O)O)nn1-c1cccc(F)c1,-6%,0.86
CC(=O)N1CCC(N2CCC(Oc3cc(Cl)ccc3C(=O)N3CCCCC3)CC2)CC1,-17%,1.46
O=C1C[C@H](NC(=O)c2cc3cc(Cl)sc3[nH]2)CN1,-5%,0.63
CC1CN(C(=O)C2Cc3cc(Cl)ccc3O2)CC1N(C)C (stereo not drawn),-3%,0.37
CC[C@H](C)Oc1ccccc1-c1nc2c([nH]1)c(C(C)C)nn2C,-16%,3.28
CNC(=O)COC1CN(C(=O)c2c(F)cc(F)cc2F)C1,-17%,1.55
CC[C@@H](CO)NC(=O)Cc1ccc(NC(=O)c2coc(C3CCC3)n2)cc1,5%,-0.99
O=C(NCCc1cc(F)cc2c1OCOC2)N1CCC1,-12%,1.29
COCCNC(=O)CCN(CCOC)c1nc(-c2ccccc2)nc2ccccc12,-6%,1.23

SMILES,% Inhibition,Z score
Cc1c(Cl)cccc1S(=O)(=O)N1CC(n2ccnn2)C1,-7%,0.81
Cc1cc(N(C)C(=O)c2nccn3ccnc23)ccc1Br,26%,-3.49
Cc1nnc(CN(CCO)c2cccc(Br)c2)s1,0%,-0.03
CC1CCCC(C)N1CCCNC(=O)CCc1cn(C)c2ccccc12 (stereo not drawn),-16%,1.57
C=CCc1cc(-c2nccn2C2CCN(C)CC2)ccc1OC,-1%,0.21
Cc1nn(C(C)C)c(C)c1CNC(=O)c1c(C)n[nH]c1C1CC1,-25%,2.65
C[C@H]1Cc2cc(-c3cc(CC(=O)N4CCOCC4)no3)ccc2O1,-15%,1.7
CCn1c(=O)c(CCC(=O)NCCCN2CCOCC2)nc2c(C)nn(-c3ccccc3)c21,-12%,1.96
CCN(Cc1nccn1C)C(=O)c1ccc(N2CCC[C@H](O)C2)nc1,13%,-1.72
CCCCN(C)c1ncc(Cl)c(C(=O)N2c3ccccc3C[C@@H]2C)n1,-5%,0.76
O=C(CCN1CCO[C@H](c2ccc(Cl)cc2)C1)N1CCCC1,-1%,0.16
Cc1cc(C)n2cc(Cn3cnc(C)c3C)nc2n1,-9%,1
C[C@]1(c2ccccc2Cl)NC(=O)N(CC(=O)Nc2ccccc2C(=O)NCc2ccco2)C1=O,-1%,0.19
COc1cc(CN2CCC[C@H](Nc3ccc4c(c3)OCCO4)C2)c(Cl)cc1O,2%,-0.29
Nc1cnc2c(ccc3nn(-c4ccccc4)nc32)n1,5%,-0.79
C[C@@H](C(=O)N1CCCCC1)N1CCN(C(=O)c2ccncc2F)CC1,-7%,0.65
C#CC[C@H](OC(=O)c1cccn1C)c1ccccn1,-4%,0.37
Cc1nn(C)c(C)c1CCNc1ccnc(C(F)(F)F)c1,-3%,0.47
CNC(=O)c1noc(CNc2nc(C)nc(C)c2C)n1,-21%,1.88
Cc1nc(C)c(C)c(N2CCC(NC(=O)c3cccnc3)CC2)n1,1%,-0.1
CCS(=O)(=O)N1CC(=O)N(c2ccc(OC)cc2)[C@](C)(C(=O)NCc2ccccc2OC)C1,4%,-0.65

SMILES,% Inhibition,Z score
Cc1cnc(C(=O)N2CCC[C@H](c3nnc4ccccn34)C2)o1,-7%,0.85
C[C@H](Nc1ccn(CC(F)(F)F)n1)C(=O)N1CCNC1=O,9%,-0.89
CC(C)CO[C@H]1CCN(C(=O)NCC(C)(C)c2cccs2)C1,-14%,1.98
Clc1ccc(CCNc2ncnc3c(-c4ccc(Cl)cc4)noc23)cc1,-5%,0.96
CNC(=O)NCC1CCOC1C(C)C (stereo not drawn),-9%,0.95
CN(Cc1nccs1)C(=O)C[C@@H](c1cccc(O)c1)c1ccccc1Cl,-4%,0.74
CCOc1ccccc1NC(=O)CC(=O)N1CCC2(CCN(C)CC2)C1,-6%,1.18
Cc1sc(-c2nnc(C(=O)N3CCCCC3)o2)cc1S(=O)(=O)NCc1ccc(N(C)C)cc1,-12%,1.7
N=C(N)NCc1ccc(COCc2ccccc2)cc1,29%,-5.25
COc1cc(Cl)c(NC(=O)NCCc2nnc(N)o2)cc1C,7%,-0.76
CCCc1c(NC(=O)N2CCN(C3CC3)CC2)cnn1-c1cccc(C)c1,-10%,0.96
Cn1ccnc1CCN1CCN(C(=O)c2ccccc2)CC1,-8%,1.23
CC[C@](C)(NCc1ccccc1OC)c1nc(C)cs1,-5%,0.95
CNC(=O)NC(=O)CNc1ccccc1C(F)(F)F,-3%,0.56
CC(C)(O)[C@@H]1CCCN1c1nc2ccccc2[nH]1,-1%,0.16
O=C(O)c1cc(-c2ccc3c(c2)OCCO3)cc(S(=O)(=O)N2CCCCCC2)c1,5%,-0.67
C=CCN(C(=O)c1ccccc1)c1nc(-c2ccc(C3CCCCC3)cc2)cs1,8%,-0.92
CCO[C@H]1CN(c2ncnc(Oc3cccnc3C)c2C)C[C@@H]1O,-2%,0.34
CC(=O)Oc1ccc(N2C(=O)[C@@H]3C(Cc4c[nH]c5ccccc45)NC4(C(=O)Nc5c(C)cc(Cl)cc54)[C@@H]3C2=O)cc1 (stereo partly drawn),8%,-0.97
Cc1ccc([C@@H]2c3cccn3CCN2C(=O)c2ccc(F)cc2)cc1,-2%,0.29
COCC1(CNCc2cc(OC)ccc2F)CCC1,6%,-0.88
